In paper PMC11089518 (Journal of Medicinal Chemistry, 2024) one finds Ki and Km data, which are given here for seven compounds.

Read-outs that look alike come from different tables or passages of the source.

The target of experiment [1] is T1, TBr HGPRT1 (Trypanosoma brucei brucei, UniProt Q07010). The experiment is described as follows: biochemical.
In experiment [2] the target is T2, Pv HGPRT (Plasmodium vivax, UniProt A5K7E9). Put plainly: biochemical.
For experiment [3], the target named is T3, Hp XGHPRT (Helicobacter pylori, UniProt O25435). The experiment is described as follows: biochemical.
Experiment [4] has as its target T3, Hp XGHPRT. To be noted: cited from earlier work; for Km: substrate.
Another experiment has as its target Ec XGPRT (Escherichia coli, UniProt P0A9M5). To be noted: cited from earlier work.
The target of a further experiment is Mtb HGPRT (Mycobacterium tuberculosis, UniProt P9WHQ9). To be noted: cited from earlier work; for Km: substrate.
Chain of Mtb HGPRT (P9WHQ9 whole entry): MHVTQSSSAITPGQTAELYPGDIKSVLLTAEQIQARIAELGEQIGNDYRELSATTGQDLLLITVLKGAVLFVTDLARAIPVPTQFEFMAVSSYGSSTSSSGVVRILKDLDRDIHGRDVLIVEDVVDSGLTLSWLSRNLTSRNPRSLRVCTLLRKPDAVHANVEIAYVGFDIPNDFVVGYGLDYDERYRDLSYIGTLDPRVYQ
The target in the next experiment is human HGPRT (Homo sapiens, UniProt P00492). To be noted: cited from earlier work; for Km: substrate.
Chain of human HGPRT (P00492 whole entry): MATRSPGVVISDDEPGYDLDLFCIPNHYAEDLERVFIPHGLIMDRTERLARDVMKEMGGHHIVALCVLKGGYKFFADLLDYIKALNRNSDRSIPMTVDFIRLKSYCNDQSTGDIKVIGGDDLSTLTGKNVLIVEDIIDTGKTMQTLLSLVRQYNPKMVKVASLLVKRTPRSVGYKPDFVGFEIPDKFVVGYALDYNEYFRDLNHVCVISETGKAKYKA
Another experiment deals with Pf HGXPRT (Plasmodium falciparum, UniProt P20035). To be noted: cited from earlier work; for Km: substrate.
Chain of Pf HGXPRT (P20035 whole entry): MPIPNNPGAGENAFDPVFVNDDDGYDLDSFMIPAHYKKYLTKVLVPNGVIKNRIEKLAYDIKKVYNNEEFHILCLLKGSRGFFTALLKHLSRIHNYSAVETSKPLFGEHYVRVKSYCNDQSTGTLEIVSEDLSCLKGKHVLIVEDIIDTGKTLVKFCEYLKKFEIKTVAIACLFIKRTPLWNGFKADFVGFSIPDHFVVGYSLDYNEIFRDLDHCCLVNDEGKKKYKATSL
Experiment [5] addresses T2, Pv HGPRT. To be noted: substrate, cited from earlier work.
In another experiment the test system is H/G/X/PRTs. To be noted: read-out: Km for PRPP; the other six enzymes (without MtbHGPRT); ref as in Table 1; cited from earlier work.
The target of experiment [6] is T1, TBr HGPRT1. To be noted: read-out: Km (PRPP); substrate; cited from earlier work.
The mark [7] stands for this setting: read-out: Ki GMP, product of the reaction.

T2 sequence (A5K7E9 1-233): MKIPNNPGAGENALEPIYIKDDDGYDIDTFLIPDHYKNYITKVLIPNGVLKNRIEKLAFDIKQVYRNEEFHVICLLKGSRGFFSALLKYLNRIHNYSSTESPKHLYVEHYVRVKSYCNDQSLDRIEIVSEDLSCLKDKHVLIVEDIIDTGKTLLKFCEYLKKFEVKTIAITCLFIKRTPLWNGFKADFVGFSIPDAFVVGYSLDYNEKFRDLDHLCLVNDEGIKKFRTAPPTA
T1 sequence (Q07010 whole entry): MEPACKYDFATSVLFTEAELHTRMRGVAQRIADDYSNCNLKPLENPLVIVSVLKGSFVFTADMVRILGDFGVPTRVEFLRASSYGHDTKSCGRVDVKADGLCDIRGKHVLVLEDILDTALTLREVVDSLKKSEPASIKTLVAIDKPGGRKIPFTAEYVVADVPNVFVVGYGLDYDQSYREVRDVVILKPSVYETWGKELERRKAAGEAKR
Chain of Ec XGPRT (P0A9M5 whole entry): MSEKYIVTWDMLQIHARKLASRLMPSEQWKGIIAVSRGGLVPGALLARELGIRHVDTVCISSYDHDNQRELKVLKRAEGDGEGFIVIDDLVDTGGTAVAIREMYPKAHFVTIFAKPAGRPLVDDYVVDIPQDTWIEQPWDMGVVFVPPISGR

As to `Nc1nc2c(ncn2[C@H]2C[C@H](COCCP(=O)(O)O)N(C(=O)CCP(=O)(O)O)C2)c(=O)[nH]1` [Compound 2, [2R,4S]-4-Guanin-9-yl-2-(2-phosphonoethoxymethyl)-1-N-(3-phosphonopropionyl)pyrrolidine], the Ki on TBr HGPRT1 [1], on Pv HGPRT [2] and on Hp XGHPRT [3] was greater than 10 µM each time.
Turning to `Nc1nc2c(ncn2[C@@H]2C[C@H](COCCP(=O)(O)O)N(C(=O)CCP(=O)(O)O)C2)c(=O)[nH]1` [Compound 3, [2R,4R]-4-Guanin-9-yl-2-(2-phosphonoethoxymethyl)-1-N-(3-phosphonopropionyl)pyrrolidine], the Ki on TBr HGPRT1 [1] was found to be 0.2 ± 0.06 µM.
Regarding `Nc1nc2c(ncn2[C@@H]2O[C@H](COP(=O)(O)O)[C@@H](O)[C@H]2O)c(=O)[nH]1` [GMP], the values for the Ki at Hp XGHPRT [4] (setting [7]), on Ec XGPRT (setting [7]) and at Mtb HGPRT (setting [7]) were 23 ± 4 µM, 4.5 ± 0.3 µM and 20 ± 3 µM, respectively.
`Nc1nc2nc[nH]c2c(=O)[nH]1` [Guanine, guanine]: the Km on Hp XGHPRT [4] (read-out: Km Guanine) was 3.1 ± 0.2 µM; on human HGPRT (read-out: Km Guanine) it was 1.9 ± 0.4 µM; at Mtb HGPRT (read-out: Km Guanine), 4.4 ± 0.4 µM; at Pf HGXPRT (read-out: Km Guanine), 0.83 ± 0.5 µM; on Pv HGPRT [5] (read-out: Km Guanine) it was 1.9 ± 0.4 µM.
Turning to `O=P(O)(O)OC[C@H]1O[C@H](OP(=O)(O)OP(=O)(O)O)[C@H](O)[C@@H]1O` [PRPP, 5-phospho-α-D-ribosyl-1-pyrophosphate], the Km is 27 to 73 µM with H/G/X/PRTs; 27 ± 4 µM at Hp XGHPRT [4] (read-out: Km (PRPP)); 64 ± 3 µM at Ec XGPRT (read-out: Km (PRPP), substrate); 65 ± 5 µM on human HGPRT (read-out: Km (PRPP)); 465 ± 15 µM at Mtb HGPRT (read-out: Km (PRPP)); 69 ± 4 µM at Pf HGXPRT (read-out: Km (PRPP)). Further, the Km at Pv HGPRT [5] (read-out: Km (PRPP)) is 73 ± 3 µM; at TBr HGPRT1 [6], 31 ± 3 µM.
On to `O=C(CCP(=O)(O)O)N1C[C@@H](n2cnc3c(O)ncnc32)[C@H](OC[C@@H](O)P(=O)(O)O)C1` [[3R,4R]-4-hypoxanthin-9-yl-3-((S)-2-hydroxy-2-phosphonoethyl)oxy-1-N-(phosphonopropionyl)pyrrolidine], for which the Ki at Pf HGXPRT is 0.002 ± 0.0005 µM.
Turning to `CC(C)OP(=O)(CCCn1ccnc1-c1c[nH]c2c(=O)[nH]cnc12)OC(C)C` [diisopropyl (3-(2-(4-oxo-4,5-dihydro-3H-pyrrolo[3,2-d]pyrimidin-7-yl)-1H-imidazol-1-yl)propyl)phosphonate], the Ki on human HGPRT was greater than 10 µM.

For orientation: Ki means the equilibrium dissociation constant of an inhibitor or competing ligand from its target. As usually defined, the Km is the concentration of substrate that gives half-maximal velocity.
